PubChem BioAssay AID1721 (National Center for Advancing Translational Sciences (NCATS), 2009)
Out of some 290,000 compounds screened, about 1,100 (0.38%) were called active. This list was built around the results that the source calls inconclusive (neither active nor inactive); the mix of calls is not that of the screen. Calls come from the whole dose curve; as a rule, active = well fitted inhibition curve with a large enough effect; inconclusive = small, poorly fitted or top-dose-only effect, or another doubt; inactive = no such curve, though single readings can be large or run the other way. A potency beside an inconclusive call is a rough fit, not a confirmed value.
Potency is the fitted concentration of half-maximal effect; tags give direction and shape of the fitted curve.

Each compound was assayed against Pyruvate kinase (Leishmania mexicana) (UniProt Q27686) (assay: qHTS Assay for Inhibitors of Leishmania Mexicana Pyruvate Kinase (LmPK)). Conditions: purified LmPK, Kinase-Glo ATP luminescence, 1 h; series mostly up to 57.5 µM.
UniProt Q27686, sequence (Q27686 whole entry, looked up): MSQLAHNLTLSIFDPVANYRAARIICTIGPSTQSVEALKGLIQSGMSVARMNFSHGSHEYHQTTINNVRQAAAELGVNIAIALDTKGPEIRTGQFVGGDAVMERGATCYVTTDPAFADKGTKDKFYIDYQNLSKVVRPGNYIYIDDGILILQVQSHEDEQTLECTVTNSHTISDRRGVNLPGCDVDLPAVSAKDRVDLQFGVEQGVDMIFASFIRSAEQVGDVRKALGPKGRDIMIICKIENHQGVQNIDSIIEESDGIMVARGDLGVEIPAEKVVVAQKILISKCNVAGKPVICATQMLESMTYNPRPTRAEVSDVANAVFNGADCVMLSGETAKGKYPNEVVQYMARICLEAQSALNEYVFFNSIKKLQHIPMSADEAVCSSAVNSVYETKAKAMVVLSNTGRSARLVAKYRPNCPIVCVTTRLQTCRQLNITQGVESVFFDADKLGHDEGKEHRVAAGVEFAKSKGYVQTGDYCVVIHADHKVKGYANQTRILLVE
Summary of the method: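 0.1 nM LmPK, 0.5 mM PEP, 0.1 mM ADP; 50 mM imidazole pH 7.2, 7 mM MgCl2, 50 mM KCl; 1 h RT. Kinase-Glo luminescence readout, normalized to no-enzyme (full inhibition) and uninhibited wells.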
`c1ccc2c(c1)CCN(c1nc3cc4c(cc3s1)OCCO4)C2` was tested, and the Potency was active: 22.4 µM. With `COc1ccc(-c2[nH]ncc2/C=N/NC(=O)c2ccncc2)c(OC)c1` the Potency was “inactive”. For `CC1(C)Cc2c(sc3nc(SCC(=O)O)nc(N)c23)CO1`, the Potency was inconclusive: 39.8 µM [falling, single point]. `O=C(Nc1ccc2c(c1)OCCO2)c1ccc(Br)cc1` was tested, and the Potency was “inactive”. `O=S(=O)(O)c1cccc(N=Nc2c(O)ccc3ccccc23)c1` was tested, and the Potency was inconclusive: 12.6 µM [falling, partial curve]. In the case of `c1ccc(-c2noc(C3CCCCC3)n2)nc1`, the Potency is reported as inconclusive: 15.8 µM [falling, partial curve]. For `Cc1ccccc1N1C(=O)c2sc3nc4c(c(=O)n3c2C1=O)CCC4`, the Potency was inconclusive: 17.8 µM [falling, partial curve]. For `CN(C)C(=O)CSc1nnc([C@H](Cc2ccccc2)NC(=O)OC(C)(C)C)o1`, the Potency was “inactive”. `O=C(CCSc1ccccc1)Nc1nc2c(s1)CCCC2` was tested, and the Potency was “inactive”. With `O=C(/C=C/c1ccccc1)c1ccccc1O` the Potency was inconclusive: 31.6 µM [falling, single point]. For `COc1cccc(Nc2ncnc3ccccc23)c1`, the Potency was inconclusive: 20 µM [falling, single point]. For `CCOc1cc(C2C3=C(CCCC3=O)NC3=C2C(=O)CCC3)ccc1OCCO`, the Potency was inconclusive: 20 µM [falling, partial curve]. In the case of `Cc1c(C(=O)NCCc2ccccc2)oc2ccccc12`, the Potency is reported as “inactive”. With `Cn1nnc(-c2ccc(OCc3ccccc3F)cc2)n1` the Potency was inconclusive: 8.91 µM [falling, partial curve]. In the case of `COc1cccc2sc(N(C)c3ccccc3)nc12`, the Potency is reported as inconclusive: 15.8 µM [falling, partial curve]. With `COc1ccc(N=N/C(=C\O)C(=O)c2cccs2)cc1` the Potency was “inactive”. In the case of `Cc1ccsc1-c1n[nH]c(=S)n1C1CCCCC1`, the Potency is reported as active: 8.91 µM. For `Cc1occc1C(=O)Nc1cccc2ccccc12`, the Potency was active: 25.1 µM. With `O=C(/C=C/c1ccco1)Nc1cccnc1` the Potency was inconclusive: 20 µM [falling, partial curve]. In the case of `O=C(Cc1ccccc1F)Nc1ccc(S(=O)(=O)Nc2ncccn2)cc1`, the Potency is reported as “inactive”. With `C(=N\Nc1ccccn1)/c1ccc(N2CCOCC2)cc1` the Potency was inconclusive: 17.8 µM [falling, single point]. `Cc1ccc(C(=O)N2c3ccccc3CC2C)o1` (centres undefined) was tested, and the Potency was active: 6.31 µM. With `O=C(N/N=C/c1ccc(Cl)c([N+](=O)[O-])c1)C1CC1` the Potency was inconclusive: 11.2 µM [falling, partial curve]. `O=C(N/N=C/c1ccc(N2CCOCC2)cc1)c1cccs1` was tested, and the Potency was inconclusive: 22.4 µM [falling, partial curve].
